# Laboratory results taken from the supplement of paper PMC12217912.
# The other results are listed elsewhere or left out. Sequences were assembled here from the parent chain. Inactive controls read about 0.05.
# B1: TEV protease; numbered along this chain (parent)
# chain: MGESLFKGPRDYNPISSSICHLTNESDGHTTSLYGIGFGPFIITNKHLFRRNNGTLVVQSLHGVFKVKDTTTLQQHLVDGRDMIIIRMPKDFPPFPQKLKFREPQREERICLVTTNFQTKSMSSMVSDTSCTFPSGDGIFWKHWIQTKDGQCGSPLVSTRDGFIVGIHSASNFTNTNNYFTSVPKNFMELLTNQEAQQWVSGWRLNADSVLWGGHKVFMVKPEEPFQPVKEATQL
# Variants of: B1
# Assay: raw area under fraction-flipped curve 0-4 h after induction (AUC4h, not background-subtracted), DNA-recorder readout of cleavage of the substrate (dimensionless); higher = more cleavage of the substrate by the protease variant
# Conditions: temperature: 34 °C; time window: 0-4 h after rhamnose induction
# Experimental: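 In vivo DNA recorder in E. coli TOP10(DE3) ΔrhaA at 34 °C. Each TEVp single-site mutant (parent TEVp 0) is paired with a single-site variant of the 7-mer TEVs (canonical ENLYFQ|S). The substrate sits between flexible linkers in a Bxb1-sfGFP-TEVs-SsrA fusion, so cleavage stabilises Bxb1 and speeds flipping of a recombination array, read by NGS. The value is the raw area under the fraction-flipped curve over 0-4 h after rhamnose induction (AUC4h), with ≥20 reads per time point. It is not background-subtracted; inactive controls average about 0.047.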
# 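Note: Bxb1 expression induced with 0.2% (w/v) L-rhamnose at OD600 near 0.5, cultures sampled hourly, flipped fraction per protease–substrate barcode pair counted by paired-end Illumina sequencing.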
Variant,area with substrate ENLYDQS,area with substrate ENLYEQS,area with substrate ENLYGQS,area with substrate ENLYHQS,area with substrate ENLYIQS,area with substrate ENLYKQS,area with substrate ENLYMQS,area with substrate ENLYNQS,area with substrate ENLYPQS,area with substrate ENLYQQS,area with substrate ENLYRQS,area with substrate ENLYVQS,area with substrate ENLYWQS,area with substrate ENLYYQS,area with substrate ENLYLQS,area with substrate ENLYSQS,area with substrate ENLYTQS
MGESLFKGPRDYNPISSSICHLTNESDGHTTSLYGIGFGPFIITNKHLFRRNNGTLVVQSLHGVFKVKDTTTLQQHLVDGRDMIIIRMPKDFPPFPQKLKFREPQREERICLVTTNFQTKSMCSMVSDTSCTFPSGDGIFWKHWIQTKDGQCGSPLVSTRDGFIVGIHSASNFTNTNNYFTSVPKNFMELLTNQEAQQWVSGWRLNADSVLWGGHKVFMVKPEEPFQPVKEATQL [S123C],0.0558,0.0612,0.0662,0.0667,0.111,0.0439,0.103,0.0886,0.0732,0.0649,0.053,0.087,0.0817,0.0596,–,–,–
MGESLFKGPRDYNPISSSICHLTNESDGHTTSLYGIGFGPFIITNKHLFRRNNGTLVVQSLHGVFKVKDTTTLQQHLVDGRDMIIIRMPKDFPPFPQKLKFREPQREERICLVTTNFQDKSMSSMVSDTSCTFPSGDGIFWKHWIQTKDGQCGSPLVSTRDGFIVGIHSASNFTNTNNYFTSVPKNFMELLTNQEAQQWVSGWRLNADSVLWGGHKVFMVKPEEPFQPVKEATQL [T119D],0.0603,0.0652,–,0.0654,–,–,–,0.0648,0.0812,–,–,0.123,0.105,–,0.0897,0.0835,0.0745
MGESLFKGPRDYNPISSSICHLTNESDGHTTSLYGIGFGPFIITNKHLFRRNNGTLVVQSLHGVFKVKDTTTLQQHLVDGRDMIIIRMPKDFPPFPQKLKFREPQREERICLVTTNFQTKSMSSMVSDTSCTFPSGDGIFWKHWIQTKDGQCGSPTVSTRDGFIVGIHSASNFTNTNNYFTSVPKNFMELLTNQEAQQWVSGWRLNADSVLWGGHKVFMVKPEEPFQPVKEATQL [L156T],0.0574,0.0678,0.051,0.0596,0.112,0.0622,0.073,0.0593,–,0.0499,0.0818,0.087,0.0703,–,–,0.063,–
MGESLFKGPRDYNPISSSICHLTNESDGHTTSLYGIGFGPFIITNKHLFRRNNGTLVVQSLHGVFKVKDTTTLQQHLVDGRDMIIIRMPKDFPPFPQKLKFREPQREERICLVTTNFQTKSMSSMVSDTSCTFPSGDGIFWKHWIHTKDGQCGSPLVSTRDGFIVGIHSASNFTNTNNYFTSVPKNFMELLTNQEAQQWVSGWRLNADSVLWGGHKVFMVKPEEPFQPVKEATQL [Q146H],0.063,0.0727,–,0.0791,0.13,0.0615,0.061,0.0706,0.0764,0.0625,–,0.122,0.077,–,–,0.0719,–
MGESLFKGPRDYNPISSSICHLTNESDGHTTSLYGIGFGPFIITNKHLFRRNNGTLVVQSLHGVFKVKDTTTLQQHLVDGRDMIIIRMPKDFPPFPQKLKFREPQREERICLVTTNFQTKSMSSMVSDTSCTFPSGDGIFWKHWIWTKDGQCGSPLVSTRDGFIVGIHSASNFTNTNNYFTSVPKNFMELLTNQEAQQWVSGWRLNADSVLWGGHKVFMVKPEEPFQPVKEATQL [Q146W],0.0686,0.0698,0.0723,0.0944,–,–,0.128,–,0.0904,0.0586,0.0505,–,–,0.0598,–,0.105,0.11
MGESLFKGPRDYNPISSSICHLTNESDGHTTSLYGIGFGPFIITNKHLFRRNNGTLVVQSLHGVFKVKDTTTLQQHLVDGRDMIIIRMPKDFPPFPQKLKFREPQREERICLVTTNFQTKSMSSMVSDTSCTFPSGDGIFWKHWIATKDGQCGSPLVSTRDGFIVGIHSASNFTNTNNYFTSVPKNFMELLTNQEAQQWVSGWRLNADSVLWGGHKVFMVKPEEPFQPVKEATQL [Q146A],0.0417,0.0759,0.0501,–,0.158,–,0.0938,–,0.0808,–,0.0679,0.101,0.103,–,0.0765,0.0823,–
MGESLFKGPRDYNPISSSICHLTNESDGHTTSLYGIGFGPFIITNKHLFRRNNGTLVVQSLHGVFKVKDTTTLQQHLVDGRDMIIIRMPKDFPPFPQKLKFREPQREERICLVTTNFQTKSMSHMVSDTSCTFPSGDGIFWKHWIQTKDGQCGSPLVSTRDGFIVGIHSASNFTNTNNYFTSVPKNFMELLTNQEAQQWVSGWRLNADSVLWGGHKVFMVKPEEPFQPVKEATQL [S124H],0.081,0.0618,0.0836,–,0.135,0.0583,0.0894,–,–,0.0677,–,–,0.0967,0.059,–,–,0.074
MGESLFKGPRDYNPISSSICHLTNESDGHTTSLYGIGFGPFIITNKHLFRRNNGTLVVQSLHGVFKVKDTTTLQQHLVDGRDMIIIRMPKDFPPFPQKLKFREPQREERICLVTTNFQTKSMSSGVSDTSCTFPSGDGIFWKHWIQTKDGQCGSPLVSTRDGFIVGIHSASNFTNTNNYFTSVPKNFMELLTNQEAQQWVSGWRLNADSVLWGGHKVFMVKPEEPFQPVKEATQL [M125G],0.0693,0.0664,–,0.074,–,0.0589,–,0.0646,0.0902,0.0706,–,0.129,0.0798,–,–,–,–
MGESLFKGPRDYNPISSSICHLTNESDGHTTSLYGIGFGPFIITNKHLFRRNNGTLVVQSLHGVFKVKDTTTLQQHLVDGRDMIIIRMPKDFPPFPQKLKFREPQREERICLVTTNFQTKSMSSAVSDTSCTFPSGDGIFWKHWIQTKDGQCGSPLVSTRDGFIVGIHSASNFTNTNNYFTSVPKNFMELLTNQEAQQWVSGWRLNADSVLWGGHKVFMVKPEEPFQPVKEATQL [M125A],0.0577,–,–,0.0787,–,–,0.0779,0.0655,0.0644,0.0591,–,0.129,–,–,–,0.0719,–
MGESLFKGPRDYNPISSSICHLTNESDGHTTSLYGIGFGPFIITNKHLFRRNNGTLVVQSLHGVFKVKDTTTLQQHLVDGRDMIIIRMPKDFPPFPQKLKFREPQREERICLVTTNFQTKSMSSMVCDTSCTFPSGDGIFWKHWIQTKDGQCGSPLVSTRDGFIVGIHSASNFTNTNNYFTSVPKNFMELLTNQEAQQWVSGWRLNADSVLWGGHKVFMVKPEEPFQPVKEATQL [S127C],0.0577,0.104,0.0714,0.0719,–,0.0579,–,0.0684,0.0729,0.0665,0.0533,0.129,–,0.0718,0.0918,0.0602,–
